Measurements taken from the GPR68 mutational scans of Howard et al. (2025).
The least precise scores are not listed. Not listed are two conditions whose scores span a narrow range. Read del as a deletion of the residues named and ins as an insertion between two positions. For some of these results: The concentration of ogerin is not given here.

B1: GPR68, Q15743 (parent)
chain: MGNITADNSSMSCTIDHTIHQTLAPVVYVTVLVVGFPANCLSLYFGYLQIKARNELGVYLCNLTVADLFYICSLPFWLQYVLQHDNWSHGDLSCQVCGILLYENIYISVGFLCCISVDRYLAVAHPFRFHQFRTLKAAVGVSVVIWAKELLTSIYFLMHEEVIEDENQHRVCFEHYPIQAWQRAINYYRFLVGFLFPICLLLASYQGILRAVRRSHGTQKSRKDQIQRLVLSTVVIFLACFLPYHVLLLVRSVWEASCDFAKGVFNAYHFSLLLTSFNCVADPVLYCFVSETTHRDLARLRGACLAFLTCSRTGRAREAYPLGAPEASGKSGAQGEEPELLTKLHPAFQTPNSPGSGGFPTGRLA

Tests used:
[1] = variants of: B1; test: cAMP reporter score (Enrich2 score, wild type = 0); higher = more signal; HEK293T, FACS bins
[2] = variants of: B1; test: surface expression score (Enrich2 score, wild type = 0); higher = more signal; HEK293T, FACS bins

Variant | cAMP reporter score ([1]; pH 5.5) | cAMP reporter score ([1]; pH 6) | cAMP reporter score ([1]; pH 6, modulator: ogerin) | cAMP reporter score ([1]; pH 6.5, modulator: ogerin) | surface expression score [2]
T293M | -0.202 | -1.69 | -1.44 | -1.19 | 0.848
T293N | 0.018 | 0.025 | 0.165 | -0.708 | 0.309
T293P | -1.07 | -1.01 | -0.849 | -1.05 | -0.003
T293Q | 0.604 | -0.219 | -0.149 | -0.827 | 1.06
T293R | 0.079 | -0.723 | 0.265 | -0.415 | -0.448
T293S | 3.69 | – | 3.27 | 0.41 | 3.53
T293V | -0.868 | -0.38 | -1.08 | -0.931 | -0.826
T293W | -0.111 | -1.25 | -0.967 | -1.12 | 0.198
T293Y | -0.858 | -0.741 | -0.986 | -1.55 | -0.331
T293_H294del | -1.62 | -1.13 | -2.32 | -0.867 | 0.424
T293_H294insG | -1.37 | -0.612 | -0.767 | -0.34 | -0.232
T293_R295del | -1.13 | -1.11 | -0.237 | -0.822 | 0.838
T293del | -1.77 | – | -0.729 | -1.12 | 0.346
H294A | -0.211 | -1.06 | -0.029 | -1.05 | 1.49
H294C | -0.29 | 0.018 | -0.367 | -0.841 | 0.354
H294D | -1.29 | -1.02 | -1.56 | -1.61 | -0.784
H294E | -0.082 | -0.178 | -0.104 | -0.76 | 1.13
H294F | -0.944 | -1.15 | – | -1.2 | 0.126
H294G | 1.09 | 0.039 | -0.169 | 0.451 | 2.38
H294I | -0.852 | 0.643 | -0.597 | -0.219 | 0.115
H294K | 0.614 | 1.76 | 0.646 | 1.03 | 1.14

Variant | cAMP reporter score ([1]; pH 5.5) | cAMP reporter score ([1]; pH 6) | cAMP reporter score ([1]; pH 6, modulator: ogerin) | cAMP reporter score ([1]; pH 6.5, modulator: ogerin) | surface expression score [2]
H294L | -0.595 | – | -0.156 | – | 0.033
H294M | -0.276 | -1.26 | 0.69 | -0.229 | 0.854
H294N | 0.939 | -1.12 | 0.858 | -0.143 | 2.02
H294P | -1.57 | -0.894 | -1.35 | -0.916 | 0.414
H294Q | 1.62 | 0.082 | 1.25 | – | 0.816
H294R | 0.462 | 1.28 | 0.134 | 1.39 | 0.145
H294S | -0.268 | -0.211 | -0.696 | 0.552 | 1.15
H294T | -0.472 | -0.403 | -1.08 | -0.948 | 1.22
H294W | -0.149 | 0.988 | – | 0.944 | -1.38
H294Y | 0.564 | -1.11 | 0.075 | -0.936 | 0.87
H294_R295del | -0.019 | -0.198 | -0.14 | -1.06 | 1.32
H294_R295insGSG | -1.41 | -0.975 | -1.36 | -0.976 | 0.08
H294del | -1.01 | -1.14 | -0.754 | -1.23 | 0.261
R295_D296insG | -0.933 | -0.62 | -1.36 | -1.06 | 0.35
D296A | -0.908 | -1.53 | -0.096 | 0.034 | -1.64
D296C | 0.887 | -0.146 | 0.185 | 0.079 | –
D296E | -0.194 | – | -0.333 | 1.04 | -1.08
D296F | -0.535 | -2.02 | -0.165 | -1 | -1.13
D296G | 0.734 | – | 0.841 | 0.569 | -0.913
D296H | 0.252 | – | -0.136 | 0.835 | -0.957
D296I | -1.01 | -0.322 | 0.336 | -0.427 | -0.661

Variant | cAMP reporter score ([1]; pH 5.5) | cAMP reporter score ([1]; pH 6) | cAMP reporter score ([1]; pH 6, modulator: ogerin) | cAMP reporter score ([1]; pH 6.5, modulator: ogerin) | surface expression score [2]
D296K | -0.425 | – | 0.283 | 3.38 | -1
D296M | 0.168 | -0.141 | -0.038 | – | -1.03
D296N | 2.08 | – | 0.972 | 0.536 | 1.92
D296P | -0.628 | -0.82 | -0.734 | -0.765 | 0.211
D296Q | 0.904 | 3.23 | 3.02 | 2.72 | -0.101
D296R | 0.313 | 1.62 | 2.19 | 1.46 | 1.81
D296S | -0.013 | – | 0.352 | -0.712 | -0.611
D296T | -0.262 | -0.44 | 0.423 | -1.22 | -0.672
D296V | 1.08 | -0.151 | -0.677 | 0.464 | -2.25
D296W | 0.858 | -0.547 | 1.02 | -0.045 | -0.042
D296Y | 0.054 | -1.12 | 0.492 | -0.104 | –
D296_A298del | -0.115 | -0.884 | 0.059 | -0.657 | -0.876
D296_L297insG | 0.034 | -1.92 | -0.305 | -1.05 | 1.12
D296_L297insGSG | -0.365 | -0.518 | -1.05 | -0.985 | 2.2
L297_A298del | -1.66 | -0.835 | -1.32 | -1.12 | -0.033
L297_A298insG | -0.539 | 1.41 | -0.205 | 0.222 | 0.563
L297_A298insGS | -1.06 | -0.53 | -1.53 | -1.56 | -0.597
L297_A298insGSG | -1.19 | -1.39 | -1.19 | -1.43 | -1.27
A298_R299del | -1.99 | -0.788 | -1.04 | -1.18 | -2.55
A298_R299insG | -0.804 | -1.22 | -0.78 | -1.17 | 0.42
A298_R299insGSG | -1.32 | -0.393 | -0.149 | – | 0.121
